Data taken from the supplement of paper PMC4967469.
Lines with a small IC50 respond at low doses; a limit (>, <) means that the fit lies beyond the doses tested. AUC sums up the same curve from the lowest dose to the 256-fold higher top dose: 1 means no effect, lower means more sensitive. For some of these results: The top dose, if marked as inferred, was calculated from the reported fits. For some of these results: An entry number marks a drug with two screens in the source, which often give different values.

Legend:
Assay in all cases: Viability of human cancer cell lines after 72 h of drug (GDSC screen)
AZD-0530 = compound: CN1CCN(CCOc2cc(OC3CCOCC3)c3c(Nc4c(Cl)ccc5c4OCO5)ncnc3c2)CC1 [AZD-0530]; conditions: top dose 2 µM
Experimental: (§1)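 Human cancer cell lines in 384-well plates, medium with 10% serum, drug for 72 h over a 256-fold dose range (nine 2-fold or five 4-fold steps up to the top dose). Adherent lines were fixed and stained with the nucleic acid dye Syto60, suspension lines read with resazurin; signal relative to control wells, capped at 0 and 100%. One two-parameter sigmoid per drug and line, fitted in a mixed model over all curves with the slope shared within a line.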

Epothilone B = compound: C/C(=C\c1csc(C)n1)[C@@H]1C[C@@H]2O[C@]2(C)CCC[C@H](C)[C@H](O)[C@@H](C)C(=O)C(C)(C)[C@@H](O)CC(=O)O1 [Epothilone B]; conditions: top dose 0.032 µM; top dose inferred
Experimental: as §1

Pyrimethamine = compound: CCc1nc(N)nc(N)c1-c1ccc(Cl)cc1 [Pyrimethamine]; conditions: top dose 20 µM; top dose inferred
Experimental: as §1

Y-39983 = compound: C[C@@H](N)c1ccc(C(=O)Nc2ccnc3[nH]ccc23)cc1 [Y-39983]; conditions: top dose 20 µM; top dose inferred
Experimental: as §1

TPCA-1 = compound: NC(=O)Nc1sc(-c2ccc(F)cc2)cc1C(N)=O [TPCA-1]; conditions: top dose 20 µM
Experimental: as §1

PHA-793887 = compound: CC(C)CC(=O)Nc1n[nH]c2c1CN(C(=O)C1CCN(C)CC1)C2(C)C [PHA-793887]; conditions: top dose 10.24 µM
Experimental: as §1

PLX4720 = compound: CCCS(=O)(=O)Nc1ccc(F)c(C(=O)c2c[nH]c3ncc(Cl)cc23)c1F [PLX4720]; conditions: top dose 10 µM
Experimental: as §1

[1] = screen: GDSC drug entry 1371, top dose inferred

Row | Cell Line | AUC (AZD-0530) | IC50 (AZD-0530) [µM] | AUC (Epothilone B) | IC50 (Epothilone B) [µM] | AUC (Pyrimethamine) | IC50 (Pyrimethamine) [µM] | AUC (Y-39983) | IC50 (Y-39983) [µM] | AUC (TPCA-1) | IC50 (TPCA-1) [µM] | AUC (PHA-793887) | IC50 (PHA-793887) [µM] | AUC (PLX4720; screen: GDSC drug entry 1036) | IC50 (PLX4720; screen: GDSC drug entry 1036) [µM] | AUC (PLX4720; [1]) | IC50 (PLX4720; [1]) [µM]
1 | LB831-BLC (bladder, adherent) | 0.974 | > 2 | 0.643 | 0.00501 | 0.974 | > 20 | 0.832 | 13.1 | 0.829 | 12.8 | 0.903 | > 10.2 | 0.955 | > 10 | 0.986 | > 10
2 | LB996-RCC (kidney, adherent) | 0.695 | 0.484 | 0.607 | 0.00415 | 0.973 | > 20 | 0.974 | > 20 | 0.846 | 18.3 | 0.983 | > 10.2 | 0.923 | > 10 | 0.891 | > 10
3 | LB1047-RCC (kidney, adherent) | 0.753 | 0.742 | 0.494 | 0.00192 | 0.971 | > 20 | 0.967 | > 20 | 0.742 | 6.8 | 0.941 | > 10.2 | 0.893 | > 10 | 0.898 | > 10
4 | LC-2-ad (lung adenocarcinoma, adherent) | 0.903 | > 2 | 0.133 | 0.000133 | 0.926 | > 20 | 0.863 | 18 | 0.541 | 1.62 | 0.602 | 1.23 | 0.944 | > 10 | 0.967 | > 10
5 | LNCaP-Clone-FGC (prostate, adherent) | 0.984 | > 2 | 0.658 | 0.00586 | 0.859 | > 20 | 0.798 | 11.1 | 0.848 | 18.2 | 0.64 | 1.65 | 0.984 | > 10 | 0.945 | > 10
6 | LOUCY (T-cell lymphoblastic leukaemia, suspension) | 0.992 | > 2 | 0.593 | 0.00343 | 0.835 | 9.88 | 0.857 | 11.7 | 0.513 | 1.35 | 0.493 | 0.614 |  |  | 0.972 | > 10
7 | LP-1 (myeloma, suspension) | 0.993 | > 2 | 0.972 | > 0.032 | 0.98 | > 20 | 0.977 | > 20 | 0.926 | > 20 | 0.636 | 1.42 | 0.973 | > 10 | 0.97 | > 10
8 | LS-123 (large intestine, adherent) | 0.916 | > 2 | 0.429 | 0.0012 | 0.977 | > 20 | 0.978 | > 20 | 0.906 | > 20 | 0.806 | 7.41 |  |  | 0.98 | > 10
9 | LS-411N (large intestine, adherent) | 0.981 | > 2 | 0.765 | 0.0142 | 0.42 | 0.717 | 0.779 | 10.1 | 0.8 | 12.2 | 0.807 | 6.65 | 0.823 | 7.64 | 0.871 | > 10
10 | LS-513 (large intestine, adherent) | 0.986 | > 2 | 0.855 | 0.0273 | 0.986 | > 20 | 0.93 | > 20 | 0.694 | 4.48 | 0.947 | > 10.2 | 0.987 | > 10 | 0.984 | > 10
11 | LS-1034 (large intestine, adherent) | 0.986 | > 2 | 0.401 | 0.00104 | 0.844 | 16.6 | 0.905 | > 20 | 0.838 | 15.6 | 0.935 | > 10.2 | 0.986 | > 10 | 0.985 | > 10
12 | LU-134-A (small cell lung carcinoma, suspension) | 0.985 | > 2 | 0.766 | 0.0126 | 0.928 | > 20 | 0.87 | > 20 | 0.825 | 13.1 | 0.887 | > 10.2 | 0.974 | > 10 | 0.971 | > 10
13 | LU-165 (small cell lung carcinoma, suspension) | 0.984 | > 2 | 0.931 | > 0.032 | 0.965 | > 20 | 0.968 | > 20 | 0.893 | > 20 | 0.945 | > 10.2 | 0.943 | > 10 | 0.843 | 8.4
14 | LXF-289 (lung adenocarcinoma, adherent) | 0.884 | > 2 | 0.311 | 0.000599 | 0.985 | > 20 | 0.961 | > 20 | 0.89 | > 20 | 0.881 | > 10.2 | 0.948 | > 10 | 0.96 | > 10
15 | MC116 (B-cell lymphoma, suspension) | 0.997 | > 2 | 0.624 | 0.00397 | 0.953 | 17.3 | 0.975 | > 20 | 0.767 | 5.51 | 0.738 | 2.4 | 0.999 | > 10 | 0.999 | > 10
16 | MC-CAR (haematopoietic neoplasm, suspension) | 0.989 | > 2 | 0.71 | 0.00727 | 0.989 | > 20 | 0.849 | 12.6 | 0.551 | 1.7 | 0.714 | 2.39 | 0.959 | > 10 | 0.979 | > 10
17 | MDST8 (large intestine, adherent) | 0.986 | > 2 | 0.859 | 0.0261 | 0.895 | > 20 | 0.984 | > 20 | 0.811 | 10.5 | 0.894 | > 10.2 | 0.887 | > 10 | 0.837 | 6.64
